Reference: PubChem BioAssay AID1794842 (National Center for Advancing Translational Sciences (NCATS), 2023)
Fewer than 10 of roughly 2,800 compounds were called active. The call rests on the fitted dose curve; in most records, active means well fitted curve in the direction sought with a large enough effect; inconclusive means small, poorly fitted or top-dose-only effect, or another doubt; inactive means no such curve, though single readings can be large or run the other way. Some of the results follow.

What follows are molecules tested against Metallo-beta-lactamase type 2 (Klebsiella pneumoniae) (UniProt C7C422) (assay: qHTS to identify inhibitors of the New Delhi Metallo-beta-lactamase (NDM): Meropenem screen against the machine-based learning selections.). Details: Purified NDM-1, meropenem hydrolysis, absorbance 300 nm; at 57.5 µM (top of the series) unless noted.
UniProt C7C422, sequence (C7C422 whole entry, looked up): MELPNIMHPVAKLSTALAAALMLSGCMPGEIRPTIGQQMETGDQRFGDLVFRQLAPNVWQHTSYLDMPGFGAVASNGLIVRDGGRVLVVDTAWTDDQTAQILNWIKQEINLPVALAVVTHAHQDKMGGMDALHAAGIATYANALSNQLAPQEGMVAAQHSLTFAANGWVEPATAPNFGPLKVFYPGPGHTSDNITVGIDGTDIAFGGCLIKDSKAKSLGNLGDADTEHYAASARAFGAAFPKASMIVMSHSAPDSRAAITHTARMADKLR
Description: Assay Submitter (PI): James Inglese Ph.D., Patricia Dranchak Ph.D., Mahesh Aitha Ph.D. Assay Development and Screening Technology Laboratory (ADST) National Center for Advancing Translational Sciences (NCATS), Rockville, MD National Institute of Health (NIH), Bethesda, Maryland The metallo-beta-lactamases (MBL) are a main antibiotic resistance mechanism evolved by bacteria. There is an urgent clinical need for MBL inhibitors to mitigate this growing threat. To support a machine-based learning study, qHTS has been used to experimentally test inhibitors identified by prediction tools.
PROTOCOL TABLE (as described by Inglese et al., 2007) SEQUENCE No. (e.g., 1, 2, 3, etc.); […] (e.g., enzyme, Incubation, Reagent, etc.); VALUE; DESCRIPTION Primary Screen 1; NDM-1; 4 uL of 3 nM enzyme [2 nM final] in 50 mM HEPES (pH 7.0), 1 uM […], 0.01% Tween20; Use BioRaptr to dispense into two sets of Aurora black, clear bottom high base 1536-well plates 2; Compounds; 23 nL; Use Pin Tool (Wako) to transfer DMSO control and library compounds in DMSO 3; Incubate; >30 min 4a; Reagent; 2 uL of 50 uM nitrocefin [16.7 uM final] to one set of assay plates 4b; Reagent; 2 uL of 150 uM meropenem [50 uM final] to second set of assay plates 5a; Incubate; 15 min 5b; Incubate; 30 min 6a; Detector; Absorbance at 485 nm (bandwidth = 5 nm, 25 flashes/well) on Tecan Infinity 6b; Detector; Absorbance at 300 nm (bandwidth = 5 nm, 25 flashes/well) on Tecan Infinity NOTES (numbers refer to sequence above) 1; Column 1 of each plate received assay buffer without enzyme and columns 2-48 received enzyme for a final assay concentration of 2 nM. 2; Control plate contained DMSO in columns 1, 2, 3, and 4. 3; Compound interaction with enzyme. 4; Nitrocefin and meropenem substrates were prepared in the same assay buffer as step 1 for a final assay concentration of 16.7 uM and 50 uM, respectively, and added to all wells across respective sets of assay plates. 5; Default reader settings were applied for absorbance read at 485 nm (nitrocefin) or 300 nm (meropenem), bandwidth = 5 nm, 25 flashes/well. References: Inglese J, Shamu CE, Guy RK. 2007. Reporting data from high-throughput screening of small-molecule libraries. Nat Chem Biol. doi:10.1038/nchembio0807-438 Yasgar A, Shinn P, Jadhav A, Auld D, Michael S, Zheng W, Austin CP, Inglese J, Simeonov A. 2008. Compound Management for Quantitative High-Throughput Screening. J Lab Autom 13:79 - 89. doi:10.1016/j.jala.2007.12.004
Further: % of control where 0% means no effect.

Row | Compound | activity change, negative = inhibition
1 | C#C[C@H]1CN2CC[C@H]1C[C@@H]2COC(=O)Nc1cc(OC)cc(OC)c1 | inactive: 8.76%
2 | CCN(CC)C[C@H]1CN2CC[C@H]1C[C@@H]2CNC(=O)Nc1cccc(SC)c1 | inactive: 0.946%
3 | Cn1nc(-c2ccccc2)cc1[C@H]1CN2CC[C@H]1C[C@@H]2CNC(=O)N1CCOCC1 | inactive: 2.81%
4 | Cc1ncc2c(n1)C[C@@H]1CC[C@H]2N1C(=O)c1sccc1C | inactive: 3.42% [at 38.4 µM]
5 | Cc1nc(-c2ccccc2)cc([C@H]2CN3CC[C@H]2C[C@@H]3CNC(=O)C2CCC2)n1 | inactive: 0.822%
6 | O=C(C1CCCCC1)N1C[C@@H]2C[C@H](C1)c1ccc(-c3cccc(C(F)(F)F)c3)c(=O)n1C2 | inactive: 0.734% [at 38.4 µM]
7 | COc1ccc(-c2cc([C@H]3CN4CC[C@H]3C[C@@H]4CNS(=O)(=O)c3ccc(C)cc3)n(C)n2)cc1OC | inactive: -1.62% [at 38.4 µM]
8 | Cc1cccc(OCC(=O)N2[C@H]3CC[C@@H]2c2cnc(-c4ccccc4)nc2C3)c1 | inactive: -2.98% [at 38.4 µM]
9 | Cc1nc(-c2ccccc2)cc([C@H]2CN3CC[C@H]2C[C@@H]3CNC(=O)c2cccs2)n1 | inactive: -1.41%
10 | O=C(c1ccc(F)cc1)N1C[C@@H]2C[C@H](C1)c1c(-c3cc4ccccc4s3)ccc(=O)n1C2 | inactive: 2.24% [at 38.4 µM]
11 | CC(=O)NCCNC(=O)[C@H]1CN2CCC1C[C@@H]2Cn1cc(-c2ccc(C(C)(C)C)cc2)nn1 (stereo not given in full) | inactive: 1.52% [at 38.4 µM]
12 | C=C[C@H]1CN2CC[C@H]1C[C@@H]2CNC(=O)c1cc(OC)c(OC)c(OC)c1 | inactive: -0.0689%
13 | CC(C)NC(=O)NC[C@H]1C[C@@H]2CCN1C[C@@H]2c1cc(C2CCCCC2)nn1C | inactive: -0.638%
14 | Cn1nc(-c2cccs2)cc1[C@H]1CN2CC[C@H]1C[C@@H]2CNC(=O)Nc1ccccc1 | inactive: -1.44%
15 | CCCS(=O)(=O)NC[C@H]1C[C@@H]2CCN1C[C@@H]2c1cc(-c2cccs2)nn1C | inactive: -2.97%
16 | CN(Cc1ccccc1)C[C@H]1CN2CC[C@H]1C[C@@H]2CNC(=O)Nc1cccc(C#N)c1 | inactive: -3.64%
17 | O=C(O)c1cn(Cc2ccccc2F)nn1 | inactive: 54.3% [at 38.4 µM]
18 | CC(C)N1C[C@@H]2OCC(=O)N(CC3CC3)[C@@H]2C1 | inactive: 2% [at 76.7 µM]
19 | COc1ccccc1N1CCN(C(=O)[C@H]2CN3CCC2C[C@@H]3Cn2cc(C(C)(C)O)nn2)CC1 (stereo not given in full) | inactive: -4.12% [at 38.4 µM]
20 | Cc1nc(-c2ccccc2Br)cc([C@H]2CN3CC[C@H]2C[C@@H]3CNC(=O)c2ccc(N(C)C)cc2)n1 | inactive: 1.29% [at 38.4 µM]
21 | CCCS(=O)(=O)NC[C@H]1C[C@@H]2CCN1C[C@@H]2CC | inactive: 5.83% [at 76.7 µM]
22 | CCCc1nc(C)cc(N2CCC3(CC2)CNC(C(=O)O)C3)n1 (stereo not given) | inactive: 55.3% [at 38.4 µM]
23 | Cc1nc(-c2ccccc2Br)cc([C@H]2CN3CC[C@H]2C[C@@H]3CNC(=O)Nc2ccccc2)n1 | inactive: 13.1% [at 38.4 µM]
24 | CNCc1cn(C[C@H]2CC3CCN2C[C@@H]3C(=O)Nc2ccccc2)nn1 (stereo not given in full) | inactive: 0.253%

Row | Compound | activity change, negative = inhibition
25 | CN(C[C@H]1CN2CC[C@H]1C[C@@H]2CNS(=O)(=O)c1cccs1)c1ccccc1 | inactive: 25.1%
26 | COCC(=O)NC[C@H]1C[C@@H]2CCN1C[C@@H]2c1cc(-c2cccs2)nn1C | inactive: 2.61%
27 | CCNC(=O)NC[C@H]1C[C@@H]2CCN1C[C@@H]2c1cc(-c2ccccc2)nn1C | inactive: 0.788%
28 | O=C(O)C1CC2(CCN(C(=O)CCc3ccncc3)CC2)CN1 (stereo not given) | inactive: 54.5% [at 38.4 µM]
29 | CC(C)NC(=O)NC[C@H]1C[C@@H]2CCN1C[C@@H]2c1cc(-c2cccs2)nn1C | inactive: 1.79%
30 | Cn1nc(-c2ccc(F)cc2)cc1[C@H]1CN2CC[C@H]1C[C@@H]2CNC(=O)COc1ccccc1 | inactive: 0.39% [at 38.4 µM]
31 | C=C[C@H]1CN2CC[C@H]1C[C@@H]2CNC(=O)c1ccc(C#N)cc1 | inactive: 13.2%
32 | COCC(=O)NC[C@H]1C[C@@H]2CCN1C[C@@H]2c1cc(-c2ccc(OC)cc2)nn1C | inactive: 0.133%
33 | CC(C)(C)c1cn(C[C@H]2CC3CCN2C[C@@H]3C(=O)NCc2ccccc2)nn1 (stereo not given in full) | inactive: -1.06%
34 | COc1ccc(NC(=O)OC[C@H]2C[C@@H]3CCN2C[C@@H]3c2cc(-c3ccccc3OC)nn2C)cc1 | inactive: 3.57% [at 38.4 µM]
35 | COc1cc2c(cc1Oc1ccccc1)NC(=O)C21CCN(Cc2cccc(O)c2)CC1 | inactive: 1.51%
36 | CC(=O)NCCNC(=O)[C@H]1CN2CCC1C[C@@H]2Cn1cc(CSc2ccccc2)nn1 (stereo not given in full) | inactive: 2.79% [at 38.4 µM]
37 | Cn1nc(C(=O)N[C@@H]2COCC[C@@H]2OCc2cscn2)c2ccccc21 | inactive: 9.98% [at 38.4 µM]
38 | Cc1ccc2c(n1)N(C)[C@H](CO)CCN(C1CCCC1)C2 | inactive: 2.61% [at 76.7 µM]
39 | CCCc1cnc(C)nc1N1CCC2(CC1)CNC(C(=O)O)C2 (stereo not given) | inactive: 50.2% [at 38.4 µM]
40 | CC(=O)c1ccc(NC(=O)OC[C@H]2C[C@@H]3CCN2C[C@@H]3c2cc(-c3cccs3)nn2C)cc1 | inactive: 1.41% [at 38.4 µM]
41 | C#CCN(C)C[C@H]1CN2CC[C@H]1C[C@@H]2CNC(=O)NC(C)C | inactive: -0.384%
42 | Cc1ccc(S(=O)(=O)NC[C@H]2C[C@@H]3CCN2C[C@@H]3CN2CCN(c3ncccn3)CC2)cc1 | inactive: -2.68% [at 38.4 µM]
43 | Cc1nc(C2CCCC2)cc([C@H]2CN3CC[C@H]2C[C@@H]3CNC(=O)CCCC(=O)O)n1 | inactive: 1.55%
44 | COc1ccc(-c2ccc(=O)n3c2[C@@H]2C[C@@H](CN(C(=O)C(C)(C)C)C2)C3)cc1 | inactive: 4.23%
45 | O=C(O)CSCC(=O)N1C[C@@H]2C[C@H](C1)c1c(-c3ccccc3F)ccc(=O)n1C2 | inactive: 5.31%
46 | COc1ccc(-c2cc([C@H]3CN4CC[C@H]3C[C@@H]4CNC(=O)C(C)(C)C)nc(C)n2)cc1OC | inactive: 0.174% [at 38.4 µM]
47 | COc1ccc(CN(Cc2ccc(OC)cc2)C[C@H]2C[C@@H]3CCN2C[C@@H]3c2cc(C3CCCC3)nn2C)cc1 | inactive: 26.3% [at 38.4 µM]
48 | CC(C)(C)c1ccc(-c2cn(C[C@H]3CC4CCN3C[C@@H]4C(=O)NCc3ccccc3)nn2)cc1 (stereo not given in full) | inactive: -2.36% [at 38.4 µM]

Row | Compound | activity change, negative = inhibition
49 | CN(C)C(=O)[C@H]1CN2CCC1C[C@@H]2Cn1cc(CSc2ccccc2)nn1 (stereo not given in full) | inactive: 1.37%
50 | C#C[C@H]1CN2CC[C@H]1C[C@@H]2CNS(=O)(=O)c1ccc(Cl)cc1 | inactive: 0.0244%
51 | CC[C@H]1CN2CC[C@H]1C[C@@H]2CNCc1ccc(OC)cc1 | inactive: -1.9% [at 76.7 µM]
52 | Cc1nc(-c2ccco2)cc([C@H]2CN3CC[C@H]2C[C@@H]3CNC(=O)Nc2ccccc2)n1 | inactive: 2.21%
53 | CSCC(=O)N1C[C@@H]2C[C@H](C1)c1ccc(-c3ccccc3CN(C)C)c(=O)n1C2 | inactive: 9.05%
54 | COc1ccc(C(=O)N2[C@H]3CC[C@@H]2c2cnc(C)nc2C3)c(OC)c1 | inactive: -0.0381% [at 38.4 µM]
55 | CNCc1cn(C[C@H]2CC3CCN2C[C@@H]3C(=O)NCc2ccccc2)nn1 (stereo not given in full) | inactive: -1.52%
56 | O=C(C1CCCCC1)N1C[C@@H]2C[C@H](C1)c1c(-c3ccc(Cl)cc3)ccc(=O)n1C2 | inactive: 3.01%
57 | CC(=O)Nc1ccc(S(=O)(=O)NC[C@H]2C[C@@H]3CCN2C[C@@H]3c2cc(-c3ccccc3)nn2C)cc1 | inactive: -0.35% [at 38.4 µM]
58 | COCC1CN(C)CC12CCN(Cc1cccc(OC)n1)CC2 (stereo not given) | inactive: 0.219% [at 38.4 µM]
59 | CN(C)C(=O)[C@H]1CN2CCC1C[C@@H]2Cn1cc(-c2cccc(N)c2)nn1 (stereo not given in full) | inactive: -4.68%
60 | CC(=O)Nc1ccc(S(=O)(=O)NC[C@H]2C[C@@H]3CCN2C[C@@H]3c2cc(-c3ccco3)nc(C)n2)cc1 | inactive: 9.45% [at 38.4 µM]
61 | COc1ccccc1CNC(=O)[C@H]1CN2CC[C@H]1C[C@@H]2Cn1cc(-c2ccccn2)nn1 | inactive: 0.922%
62 | CC1CCN(C[C@H]2CN3CC[C@H]2C[C@@H]3CNC(=O)Nc2ccccc2)CC1 | inactive: 0.427%
63 | CC[C@H]1CN2CC[C@H]1C[C@@H]2CNCc1ccc2c(c1)OCO2 | inactive: -2.34%
64 | CC[C@H]1CN2CC[C@H]1C[C@@H]2CNC(=O)c1ccc(N(C)C)cc1 | inactive: 13.9%
65 | COc1ccc(C(=O)N2C[C@@H]3C[C@H](C2)c2c(NC(=O)c4ccco4)ccc(=O)n2C3)cc1 | inactive: 2.15%
66 | CC(=O)Nc1ccc(-c2ccc(=O)n3c2[C@@H]2C[C@@H](CN(C(=O)C4CCCCC4)C2)C3)cc1 | inactive: -0.744%
67 | CC(=O)Nc1ccc(S(=O)(=O)NC[C@H]2C[C@@H]3CCN2C[C@@H]3c2cc(-c3ccccc3Br)nc(C)n2)cc1 | inactive: 0.512% [at 38.4 µM]
68 | N#Cc1ccc(C(=O)N2C[C@@H]3C[C@H](C2)c2c(-c4ccccc4F)ccc(=O)n2C3)cc1 | inactive: -1.77%
69 | COc1ccc(CN2C[C@@H]3C[C@H]2C(=O)Nc2ccccc2O3)cn1 | inactive: -1.05%
70 | O=C1N(Cc2cccnc2)C[C@H]2CN(C3CCC3)CCN12 | inactive: 0.55% [at 76.7 µM]
